Screen size: about 150,000 compounds; about 540 (0.36%) showed an effect of 50% or more. This is one part of the list.

The subject of this assay is Plasmodium falciparum. Briefly: Primary screen in NF54 nanoGlo assay, in single point, at 2uM, 72h; a lower Z score goes with more inhibition. In kind it is functional, Erythrocyte. To be noted: timepoint 72 hour.
A word on the % Inhibition: it is the change of the read-out against control, counted positive when it falls. For `O=C(CC1CC1)N1CCC[C@@H]1CCc1noc(-c2cccnc2)n1`, the “% Inhibition” value is -10% and the Z score was found to be 1.92.

`O=C(COc1ccc(-c2ccccc2)cc1)NCCC1=CCCCC1`: the “% Inhibition” value amounted to 9% and the Z score is -1.3.

On to `Cc1nc(N)sc1CC(=O)NC1(CO)CCCCCC1`, for which the “% Inhibition” value worked out at 1% and the Z score is given as -0.13.

`O=C(COc1ccc(Cl)cc1Cl)NOCc1ccccc1`: the “% Inhibition” value was -18% and the Z score was found to be 3.33.

Regarding `CCCOC(=O)N[C@@H](CC)COC(=O)Nc1cc(C)ccc1C`, the “% Inhibition” value is on record as -2% and the Z score was found to be 0.3.

As to `COc1cc(CN2CCC[C@H](N(C)CCc3ccccc3)C2)ccc1O`, the “% Inhibition” value was found to be 6% and the Z score is given as -0.81.

Take `COc1ccccc1N1CCN(C(=O)Cn2ncn3nc(-c4cc(C)ccc4C)cc3c2=O)CC1`: the “% Inhibition” value is 33% and the Z score is on record as -3.67.

As to `CCO[C@@H](C)c1nccn1Cc1nc(-c2ccccc2)oc1C`, the “% Inhibition” value is recorded as 5% and the Z score is given as -0.61.

For the compound `O=C(CCN1CCc2sccc2C1)NC1CCCCC1`, the “% Inhibition” value stood at 3% and the Z score is -0.46.

In the case of `COc1cc(C)ccc1OCCN1CCN(C)[C@]2(CCC(=O)N(C)CC2)C1`, the “% Inhibition” value is given as -8% and the Z score was 1.31.

As to `COc1ccc(-c2cc(C(=O)N3CCN(c4ccccc4Cl)CC3)c(C)n2-c2ccc(F)cc2F)cc1`, the “% Inhibition” value is on record as -7% and the Z score stood at 0.66.

`Cc1ccc(F)c(N2CCCC(NC(=O)C3COCCO3)C2)c1` (centres undefined): the “% Inhibition” value amounted to 14% and the Z score is given as -1.52.

On to `CCCn1cc(S(=O)(=O)Nc2cc(C)ccc2C)c2cccnc21`, for which the “% Inhibition” value is recorded as -2% and the Z score turned out to be 0.41.

For `Cc1nc2nc(-c3cccs3)nn2c(C)c1CC(=O)N1CCCCC1`, the “% Inhibition” value is -8% and the Z score was 0.94.

Consider `COC[C@H]1CN(Cc2noc(C3CC3)n2)CCO1`, for which the “% Inhibition” value turned out to be 2% and the Z score is reported as -0.31.

As to `CC(=O)N1CCC[C@H](c2nnc(N3CCC4(CCCCC4)CC3)n2C)[C@@H]1C`, the “% Inhibition” value was found to be 0% and the Z score is recorded as 0.03.

On to `CCN(CC)C(=O)c1sc(C)nc1C`, for which the “% Inhibition” value is -2% and the Z score is on record as 0.18.

With `CC(C)N1CCC(NC(=O)c2ccc(-c3cnn4ccccc34)cc2)CC1`, the “% Inhibition” value was -18% and the Z score is 2.01.

As for `CCCCn1nnnc1CNCCn1cc(C)cn1`, the “% Inhibition” value was -9% and the Z score was 1.34.

`CC(C)[C@H]1CN(c2ccncc2F)C[C@@H]1N(C)C`: the “% Inhibition” value is reported as -18% and the Z score was determined as 1.7.

With `COc1ccc2[nH]c3c(c2c1)CCN(C(=O)c1cc(F)cc(F)c1)[C@H]3c1ccc(-c2ccccc2C(F)(F)F)o1`, the “% Inhibition” value is -13% and the Z score came out at 1.31.

For `O=C(NCc1nc(-c2ccco2)n[nH]1)[C@@H]1CCCN1c1ncnc2ccccc12`, the “% Inhibition” value is reported as -1% and the Z score came out at 0.11.

As to `COCCNC(=O)[C@@H]1COC2(CCN(C(=O)c3ccc(F)cc3F)CC2)N1C(=O)c1ccc(F)cc1`, the “% Inhibition” value came out at 0% and the Z score was -0.02.

In the case of `CC(C)(N)c1ccccc1Br`, the “% Inhibition” value is listed as -7% and the Z score turned out to be 0.85.

`CC(C)(CNC(=O)CC(=O)NCC(F)(F)F)c1cccs1`: the “% Inhibition” value is reported as -6% and the Z score came out at 0.82.

Turning to `O=C(O)CO[C@H]1COCC[C@@H]1NC1CCN(c2ccc(Cl)cc2)CC1`, the “% Inhibition” value was -11% and the Z score was 2.14.

Regarding `CC1(C)CCc2onc(CN3CCOc4ccccc4[C@@H]3CO)c2C1`, the “% Inhibition” value is given as -14% and the Z score turned out to be 1.73.

On to `COc1cc(Cc2ncnn2C(C)(C)C)cc(OC)c1OC`, for which the “% Inhibition” value turned out to be 2% and the Z score is -0.32.

With `CCN1CCN(C(=O)CCc2cc3ccccc3[nH]c2=O)[C@@H](C)C1`, the “% Inhibition” value was -14% and the Z score was found to be 2.26.

As to `CO[C@H]1C[C@@H](O)C12CCN(C(=O)c1ncccc1O)CC2`, the “% Inhibition” value is on record as -11% and the Z score was 1.51.

On to `c1cnn(C2CN(Cc3cscn3)C2)c1`, for which the “% Inhibition” value was determined as 2% and the Z score is -0.32.

Consider `C[C@H](O)c1nc2cc(-n3ccnc3-c3ccc(-c4cc[nH]n4)o3)ccc2n1C`, for which the “% Inhibition” value is recorded as 1% and the Z score is given as -0.14.

Turning to `CC(=O)N1c2cc(S(=O)(=O)N3CCN(c4ccccc4Cl)CC3)c(Br)cc2C[C@@H]1C`, the “% Inhibition” value is -12% and the Z score worked out at 1.14.

Regarding `CNC(=O)C[C@H](C)N(C)C(=O)c1ccc(-c2ccc3c(c2)CCC3=O)cc1`, the “% Inhibition” value is reported as -3% and the Z score is 0.57.

Take `Cc1ccc(C)n1CC(=O)Nc1ccccc1-c1nnn(C)n1`: the “% Inhibition” value stood at 9% and the Z score was -1.14.

`CN1CCN(c2cc(-n3ccnc3)ncn2)C[C@@H]1CO`: the “% Inhibition” value is on record as -4% and the Z score was 0.81.

On to `CC(CN(C)C(=O)NCC1Cc2ccccc21)c1nccs1` (centres undefined), for which the “% Inhibition” value was -7% and the Z score was 0.58.

As for `C[C@@H](CCc1ccccc1)NC(=O)C1CCN(S(=O)(=O)N2CCCC2)CC1`, the “% Inhibition” value is -7% and the Z score is listed as 1.06.

For the compound `CC(C)(C)OC(=O)NC[C@H]1C[C@H](NC(=O)c2ccc(O[C@H]3CC3(F)F)cc2)C1`, the “% Inhibition” value is -13% and the Z score was found to be 1.76.

In the case of `COCCc1noc(Cn2cnnc2)n1`, the “% Inhibition” value was found to be 3% and the Z score is recorded as -0.45.

Consider `O=C1CCN(C(=O)c2ccoc2C2CC2)[C@H](C2CC2)C1`, for which the “% Inhibition” value is listed as 14% and the Z score was -1.79.

With `CN1CCCN(C(=O)C[C@H]2COCCN2Cc2ccccc2F)CC1`, the “% Inhibition” value is listed as -4% and the Z score was 0.49.

These data come from ChEMBL document CHEMBL4888484, “Replenishing the malaria drug discovery pipeline: Screening and hit evaluation of the MMV Hit Generation Library 1 (HGL1) against asexual blood stage Plasmodium falciparum ,using a nano luciferase reporter read-out” (2022).
